Measurements published in ChEMBL document CHEMBL4888484, “Replenishing the malaria drug discovery pipeline: Screening and hit evaluation of the MMV Hit Generation Library 1 (HGL1) against asexual blood stage Plasmodium falciparum ,using a nano luciferase reporter read-out” (2022).
Screen size: about 150,000 compounds; about 540 (0.36%) showed an effect of 50% or more. The list shows a part of the results.

Each molecule was assayed on Plasmodium falciparum (assay: Primary screen in NF54 nanoGlo assay, in single point, at 2uM, 72h; a lower Z score goes with more inhibition). Conditions: timepoint 72 hour.
Type: functional, Erythrocyte

Row | Structure (SMILES) | % Inhibition [%] | Z score
1 | O=C(NCc1nc2ccccc2s1)[C@@H]1CCCCn2nnnc21 | 8 | -1.09
2 | CCn1cc(C(=O)N(C)c2ccc(F)c(Cl)c2)cn1 | -13 | 1.31
3 | Cn1nc(-c2ccc(F)cc2)cc1C(=O)Nc1ccc2c(c1)C(=O)N1CCCC[C@H]1CCO2 | -13 | 1.52
4 | Cc1noc(C)c1CS(=O)(=O)CCC(=O)N1CCCCC1 | -10 | 0.86
5 | COc1cccc(C)c1NC(=O)c1cnn2c1C[C@@H](C)CC2 | -10 | 1.68
6 | Cc1ccccc1-c1nccn1CCc1n[nH]c2c1CCCC2 | -11 | 2.1
7 | CC(=O)c1ccccc1NC(=O)[C@H](C)N1CCC(c2nc(C)no2)CC1 | -10 | 1.61
8 | Cc1csc(CNC(=O)N[C@@H](C)c2ccc(OC(F)(F)F)cc2)n1 | -9 | 0.86
9 | Cc1cc2[nH]c(=O)[nH]c2c(NC(=O)c2ccnn2C(C)C)c1C | 12 | -1.35
10 | Cc1ccccc1NC(=O)N1CCN(c2nc(N3CCOCC3)nc(-n3ccnc3)n2)CC1 | 12 | -1.52
11 | O=C(O)c1cccnc1NCC1CCN(Cc2ccncc2)CC1 | 0 | -0.07
12 | Cc1cc(CN(Cc2nccn2C)C2CC2)on1 | -22 | 2.37
13 | Cc1nn(-c2cncc(C(N)=O)c2)c(C)c1-c1ccccc1O | -6 | 1.21
14 | O=C(NC[C@@H](O)Cc1ccc(F)cc1F)C1CCC1 | 10 | -1.41
15 | Cc1cn(CC(=O)Nc2ccc3c(n2)OCCO3)nc1C(F)(F)F | -1 | 0.12
16 | CN1C(=O)c2ccc(-c3ccc(F)cc3F)cc2O[C@H]2CN(C3COC3)C[C@H]21 | -2 | 0.25
17 | CCCN1CCCN(C(=O)Nc2ccc(-c3nc(C4CC4)no3)cc2C)CC1=O | -22 | 2.78
18 | O=C(c1cn2ccnc(-c3ccc(F)cc3)c2n1)N1CCN(c2ccccc2)CC1 | -10 | 1.54
19 | OCCN(Cc1ccsc1)C1Cc2ccccc2C1O (stereo unspecified) | 7 | -0.8
20 | CN(C)c1ccc(N2CCC(N3C(=O)[C@@H]4CCCN4C3=O)CC2)cc1 | -9 | 0.9
21 | CC(C)N1CCN(C(=O)c2csc(NC(=O)c3ccc(Cl)cc3Cl)n2)CC1 | 0 | -0.07
22 | CC(=O)N1CCN(Cc2nc3ccccc3o2)CC1 | -23 | 2.76

Row | Structure (SMILES) | % Inhibition [%] | Z score
23 | N#Cc1cccc(CN2CCN(C(=O)N3CCCC3)CC2)c1 | -12 | 1.65
24 | O=C(NCc1nccnc1-c1cccs1)c1ccc2c(c1)OCO2 | -3 | 0.42
25 | Cc1nc(C(C)(C)NCCN2C(=O)CCC2=O)sc1C | -10 | 1.6
26 | COc1ccc(CNc2cncnc2OC)c(OC)c1 | 12 | -1.43
27 | Cc1cccc2nc(C3CCN(Cc4cnc(N(C)C)n4C)CC3)oc12 | -10 | 1.24
28 | COc1ccc(NC(=O)Cn2cnc3nc(N(C)Cc4ccccc4)sc3c2=O)cc1Cl | 32 | -4.27
29 | CCc1nnc(NC(=O)c2ccsc2)s1 | 3 | -0.37
30 | CC(C)(C(=O)Nc1nc2c(ccc3ccccc32)s1)S(C)(=O)=O | -6 | 1.05
31 | Cn1ncc2c(=O)[nH]c(CN3CCC(C(=O)NC(C)(C)C)CC3)nc21 | 3 | -0.5
32 | C=CCCC(=O)NC1CCCC(S(C)(=O)=O)C1 (stereo unspecified) | -13 | 2.42
33 | Cc1c(NC(=O)C2CCN(S(=O)(=O)Cc3ccc(F)cc3)CC2)c(=O)n(-c2ccccc2)n1C | 0 | -0.01
34 | CCC(CO)NCC(O)COc1cccc(Br)c1 (stereo unspecified) | -11 | 1.52
35 | Cc1cc(C)n(CCC(=O)N2CCC[C@H]2C(F)(F)F)c(=O)n1 | -3 | 0.39
36 | CC(C)N1C[C@@H]2C[C@H]1C(=O)NC[C@H]1O[C@H](CCOc3cc(-c4cnn(C)c4)ccc3C(=O)N2)CC[C@@H]1O | 33 | -3.7
37 | COc1cccc(CNC2CC3CCC2C3)c1OC (stereo unspecified) | -11 | 2.11
38 | COc1ccc(CNC(=O)CCN2CCCCCCC2)cc1OC | -6 | 0.79
39 | C[C@H](NC1(CO)CC1)c1ccc(Br)cc1F | 0 | 0.05
40 | CCCN(C(=O)NCc1cccnc1)C1C2CCOC2C1(C)C (stereo unspecified) | -2 | 0.17
41 | Cc1cccnc1[C@@H](NS(=O)(=O)N(C)C)C1CC1 | -17 | 2.59
42 | COC(C)(C)C(=O)N1CCC[C@H](c2[nH]ncc2-c2ccc(C)cc2)C1 | -8 | 1.09
43 | CC[C@@H](C(=O)N1CC(Oc2ccccc2C)C1)N1CCCC1 | 5 | -0.96
